# Assay results: the supplement of paper PMC12632987
# In all, about 2,300 sequences were measured (“median log2 fold change of GCK-ALFA target abundance (FLAG IP / Myc IP barcode read proportion)”: median about 0.095, lowest 2% from about -0.47 on). This is one part of the list.
# B1: LC3A_28_640 (protein)
# chain: SEIREQIERALREAEEARRRGEPTVITLTLDGNATQEDVELLIEALERIAEILESVPGSAIVVDITGDVKQEHIDLVADKAEEIEKKYPNVTVILALEEK
# B2: LC3A_3_1441 (protein)
# chain: MEELLERAREVLEEIGASPEATEAVLRLVERALEAGEEELVERLIEVLEEARDVPSEELLEAAEEALRRLEEEGVPVEEVLERFIEEIRLLALEKEIEEL
# B3: LC3A_28_985 (protein)
# chain: SAMEERLAAALAEAKAAAAAGEATVITIEVPSTATEEDIEKAVAALKEIGEILKGVKGSAIVVDLESGVPEEHIRKLADAGEEVEKANPDVSVIFALDED
# B4: LC3A_28_824 (protein)
# chain: SVAEEIIEEINKKAEEILKSGKPGVLEVDIKPTLSEEEVKEIAENIKEQAKKLKDIPGTAIVINLEGPTSQEKQDIIMETADEIEEEYPNITVIIALDED
# B5: LC3A_28_709 (protein)
# chain: NPLEESIKKALAEAKAAAAAGEETVITIKVPGDATEEDIEKLIKALEEIAEILKDLKSTSIVIDVDGGVKQEHIDKIADAAEEIEKKYPNVTVIIALDES
# B6: LC3A_78_2086 (protein)
# chain: MKKAIIAHSPSTKEEAEREAERLKDEMEVTVVDLSDLEKALEKYKDEDEVLVIVHADTLDEAMEAEEKIKEIFKDYKISSIIELDEETGKVTAYIEIRKK
# B7: LC3A_free_46_2323 (protein)
# chain: PKVEIDIDALHEDKETMEKFVEEVKKSIKKIAEKYGAKVEIKVNIEKLPDGSYYANIEITIYAETKEKAEKAANEIIDEIEKIAKEKNVAIIISREFIEE
# B8: LC3A_3_1426 (protein)
# chain: AEELFERARREMEEIGLSEEAREAVLELVRRALEAGEFEEVEELIRELKRARNVPSEEILEAAREALRRVEEEGVPIREALRELIEEVRLLRLEKEIEEL
# B9: LC3A_28_949 (protein)
# chain: MTIEEQVKKALEEAKKAKEKNEPVTITLTVTGDATEEDVELVIKTIREIAELHKDIKGVSIIVDVDGDVKQEFIDLLLDELDRVEKEYPNINAIMALDED
# B10: LC3A_141_373 (protein)
# chain: ETVTITKEAKNIDEDEAAKLAKEVAEEVEKEVKKFKGKTVTVKVTVTVEDVETGEKTTLTITDDVTEETAEMVMSGFEIDILSLVLDKKVNLKIEVTLTT
# B11: LC3A_132_266 (protein)
# chain: SEELFEKALEELKEILDKIVEALKAGEDPSPLINELYEKAKEYAKKLSLEETEKLVEETIEYAEKLFKERLDPNDEEAIRTLDIIEMLLEGVLIEKELES
# B12: LC3A_28_1056 (protein)
# chain: SAVDAAIAAALAEARALAAQGQEALITITVKADDTEEDVEKKLEAVREIAEITADLPAVSIVVDVDNKNKEEVTKKFAELGDELEEKYPNVTVIIALSEE
# B13: LC3A_3_1845 (protein)
# chain: SEEIIEEALAYLEELGRSEEVIEKTRELLDALKERGYEEAMKTLLEELKELENVSDDILLAMLEDILRAVTEENLSEEETIELIKEEARTALNESEIEEL
# B14: LC3A_3_1457 (protein)
# chain: LEEEKKKLRKILEENGANEETIKAGEELLEALGKKGYENAIKTVIEEVEKMKDVKSEILLDMFKELLEIVKTEDLSEEEIIKKIKEEAAAAKAENEIIEL
# B15: LC3A_28_657 (protein)
# chain: MSIDEILEKALEEAKQAKAAGEPTVITITVPGTANEEDIEKVIETMEEIAELLKDIPGSAIIIDLTGNLDEEKKNKLIDKAEELEEKYPNVTVIIALEEE
# B16: LC3A_3_1408 (protein)
# chain: FEEIREEALELLRKYGASEEVLEKLEKVLDALEEKGYEEAAKTLLEELKKMKNLSDEILLDLFEDVLDFVENEDASEEEVVKFIKEEASIALSENEIEEL
# B17: LC3A_40_1917 (protein)
# chain: MYEVSIDILADDPAATAAALDAARDRAAAEIKSPEGEKILAALDTMRAQAAAGEPAEATITGVSEEEANTLLRILEEMEAALHAAGVRVAALISIDKEEE
# B18: LC3A_3_1648 (protein)
# chain: MEKELEETEKLLKEAGHDQETIDAFRETGELLIEKGYEEAFKELIEKVKELKDLPSDILLAMLEDVLRIVKEEDLSEEEIIEEIKRIAETAKNEGEIIEL
# B19: LC3A_free_39_2274 (protein)
# chain: SAAELAAAKARLRALAAEASPEAAAAIDEVLELLADLPEALAAVADALEELKAAGADILAFAREVVALAREGRAAGLSPEELTRRVRELARDAVNLIPLD
# B20: LC3A_free_46_2324 (protein)
# chain: YKVIIDLTALHDNKENMEKFVEELEKKFKEIAEKYNAEIEIKVEISKLEDGSYFADIKIEVKAETKEKAEKILTEIIDSADEIAKKYNASVLISYEIIEE
# B21: LC3A_3_1744 (protein)
# chain: MEERLERIREELEELGFSEEVIEAALRVARALLERGFEEAVETLLRELRELKDVPDEILLAMLEDILRAVEENDIDEEEAIELIKEEARIARNEAEIEEL
# B22: LC3A_free_39_2196 (protein)
# chain: SEEERQEAIDELLKLAEEEGEEAKKLAREILELMGYELEHAKELLELAKKAKEEGVDLKEVLKEALALGKELKAQGKSKEEIAKAVLELIQDRINLIPID
# B23: LC3A_free_26_2145 (protein)
# chain: SDFVDLYNIDKAEEAVEEAMKLLKEEGYKDEELLKLLEEAKKYIRELTLESLKKALKLVEEAMKRVKEDKSLPEKVKKELLKLLEEAKKHLEETIEIMES
# B24: LC3A_free_39_2204 (protein)
# chain: SAEEFQEYADRLLALAKEEGEEALKEAEELLKLIEGNTELAKTVLELAEKAKAEGADLKEFLKEAVKLVKELIAAGASDEEIIKALKELARDFINLIPID
# B25: LC3A_13_351 (protein)
# chain: TLTYTATTAEEVKAITKEVLAAGKDVNLTVDLTGKSQEEIDAIAKALAAFVKEAIKAGINLTITIIGDRLDTNYVALEIGAEIAENQGGGQVTVNTELTP
# B26: LC3A_3_1491 (protein)
# chain: MEELLERMREVLEARGASEEQIEEVLEAVEELLELGYEETVEELIELFEANPDLDPEQIVTAVLITLEVAEEEDLSEEELVERARRIFEDVAEIEALDEE
# B27: LC3A_free_39_2209 (protein)
# chain: SEEELEELIKEVAKEGGIDYEYVKEKIEEIQKVAELSIEQMKEIVKAILKAVKAGADAKEILEEILKIAKELKEKGKSPEEIKEAILKTVEDFENLVPLD
# B28: LC3A_free_39_2191 (protein)
# chain: SAAERKRLREEILALAAKYGEEARKLAEELIELIGDEVERLRRLLELLKEADEAGVDLKELLEEALALARELQAQGKSREEIAEEVFALIRDRINLIPID
# B29: LC3A_28_688 (protein)
# chain: MDPLEELLEQVEKATEQLLADPGATVTIEINRPLTEEETEKLVEALKEMAERVKDVDGGTIIISVSEKVSEETINKLAEAGEEIEEKYPNITVIIALEER
# Molecular target: MAP1LC3A, Q9H492
# Test: median log2 fold change of GCK-ALFA target abundance (FLAG IP / Myc IP barcode read proportion) (log2 ratio); each designed protein is fused to an ALFA-tag nanobody in HEK293 cells to bring the named protein to FLAG-tagged glucokinase (GCK); Myc marks an untargeted standard; higher = target protein stabilised (more abundant)
# Settings: target protein: 3xFLAG-MCP-GCK-ALFA reporter; HEK293 landing pad (RPLP)
# Summary of the method: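 An ALFA-nanobody-fused binder library was recombined into HEK293 landing-pad cells and induced with 2 μg mL^−1 doxycycline. Cells were transfected with a plasmid expressing a FLAG-tagged target and a Myc-tagged standard. After 48 h, lysates underwent anti-FLAG and anti-Myc immunoprecipitation, and circular RNA barcodes were reverse transcribed, amplified and sequenced. Target abundance is the per-binder median log2 ratio of FLAG to Myc barcode read proportions. Barcodes needed ≥10^−7 proportion in both replicates, binders ≥3 barcodes per replicate, and a 10^−6 pseudocount was added; the two replicates were pooled.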
row,Binder,median log2 fold change
1,B1,-0.0387
2,B2,0.113
3,B3,-0.274
4,B4,-0.0892
5,B5,0.108
6,B6,0.255
7,B7,0.0144
8,B8,0.0986
9,B9,0.125
10,B10,0.304
11,B11,0.165
12,B12,-0.0101
13,B13,0.182
14,B14,0.563
15,B15,-0.19
16,B16,0.0172
17,B17,0.0814
18,B18,0.37
19,B19,0.209
20,B20,-0.0986
21,B21,-0.316
22,B22,0.256
23,B23,0.0771
24,B24,0.298
25,B25,0.184
26,B26,-0.577
27,B27,0.0555
28,B28,0.0381
29,B29,0.248
